In the RNAGym collection of RNA variant scans (doi:10.7554/elife.90254):
Read counts are not given, so values of variants with three or more changes are uncertain.

B1: LINE1-mini (parent)
chain: GGCAGAGCUCAACACAGCGUGGCAAAGUGGCUGUGGCUAGACUGCC

Variants of: B1
Test: self-cleavage, relative activity (ratio to wild type); higher = more cleavage; in vitro, sequencing; the parent is a self-cleaving ribozyme

Row | Variant | self-cleavage
1 | GGCCGAGCUCAACACAGCGUGGCACAGUGGCUGUGGCUAGACCGCC [A4C A25C U43C] | 0.01
2 | GGCCGAGCUCAACACAGCGUGGCAGAGUGGCUGAGGCUAGACUGCC [A4C A25G U34A] | 0.06
3 | GGCCGAGCUCAACACAGCGUGGCAGAGUGGCUGUGGCAAGACUGCC [A4C A25G U38A] | 0.07
4 | GGCCGAGCUCAACACAGCGUGGCAUAGUGGCUGUGGUUAGACUGCC [A4C A25U C37U] | 0.02
5 | GGCCGAGCUCAACACAGCGUGGCAACGUGGCUGUGGCUGGACUGCC [A4C A26C A39G] | 0.04
6 | GGCCGAGCUCAACACAGCGUGGCAACGUCGCUGUGGCUAGACUGCC [A4C A26C G29C] | 0.08
7 | GGCCGAGCUCAACACAGCGUGGCAAGGUGGCUGUGGCUAGAAUGCC [A4C A26G C42A] | 0.08
8 | GGCCGAGCUCAACACAGCGUGGCAAGGUGGCUGUGGCUAGACUGCG [A4C A26G C46G] | 0.11
9 | GGCCGAGCUCAACACAGCGUGGCAAGGUGGCUGUCACUAGACUCCC [A4C A26G G35C G36A G44C] | 0.02
10 | GGCCGAGCUCAACACAGCGUGGCAAUGUGGCUGUGGCUAGUCUGCC [A4C A26U A41U] | 0.18
11 | GGCCGAGCUCAACACAGCGUGGCAAAGUGGCUGUGGCUCAACUGCC [A4C A39C G40A] | 0.04
12 | GGCCGAGCUCAACACAGCGUGGCAAAGUGGCUGUGGCUUGAUUGCC [A4C A39U C42U] | 0.09
13 | GGCCGAGCUCAACACAGCGUGGCAAAGUGGCUGUGGCUAGCCGGCC [A4C A41C U43G] | 0.02
14 | GGCCGAGCUCAACACAGCGUGGCAAAGUGGCUGUGGCUAGGCUCCC [A4C A41G G44C] | 0.07
15 | GGCCGAGCUCAACACAGCGUGGCAAAGUGGCUGUGGCUAGUAUUCC [A4C A41U C42A G44U] | 0.11
16 | GGCCGAGAUCAUCACAGCGUGGCAAAGUGGCUGUGGCUAGAUUGCC [A4C C8A A12U C42U] | 0.41
17 | GGCCGAGAUCAACACGGCUUGGCAAAGUGGCUGCGGCGAGACUGAC [A4C C8A A16G G19U U34C U38G C45A] | 0.02
18 | GGCCGAGAUCAAUACACCUUGGCAAAGUGGCUGUGGCAAGUCUGCG [A4C C8A C13U G17C G19U U38A A41U C46G] | 0.09
19 | GGCCGAGAUCAACACAGUGUGGCAAAGUGGCUGUGGCUAGACUGCC [A4C C8A C18U] | 0.1

Row | Variant | self-cleavage
20 | GGCCGAGAUCAACACAGCGUGGCAAAGUGGCUGUAGCUAGACUGCC [A4C C8A G35A] | 0.93
21 | GGCCGAGAUCAACACAGCGUGGCAAAGGGGCUGCGCCUAGACUGCC [A4C C8A U28G U34C G36C] | 0.04
22 | GGCCGAGGUCAACACUGCGUUGCAAAGUGGCUGUCGCUAGAAUGCC [A4C C8G A16U G21U G35C C42A] | 0.01
23 | GGCCGAGGUCAACAGAGCGUGGCAAAGUGGCUGUGGCUAGACUGCC [A4C C8G C15G] | 0.08
24 | GGCCGAGGUCAACACAGCGUGGGAAAGUGGCUGUGGGUAGACUGCG [A4C C8G C23G C37G C46G] | 0
25 | GGCCGAGGUCAACACAGCGUGGGAAAGUGGCUGUGGCUAGAUUGCC [A4C C8G C23G C42U] | 0.03
26 | GGCCGAGGUCAACACAGCGUGACAAAGUGGCUGUGGCUAGACUGCC [A4C C8G G22A] | 0.01
27 | GGCCGAGGCCAACACAGCGUGGCAAAGUGGCUGUGGCUAGGCUGCC [A4C C8G U9C A41G] | 0.02
28 | GGCCGAGUUCCACACAGCGUGACAAAGUGGCUGUGGCUGGACUGCC [A4C C8U A11C G22A A39G] | 0.01
29 | GGCCGAGUUCAACACAGCGUGGCACAGUUGCUGUGGUAAGACUGCC [A4C C8U A25C G29U C37U U38A] | 0.31
30 | GGCCGAGUUCAACACAGCGUGGCAUAGUGGCUGUGGCUAGACUGCC [A4C C8U A25U] | 0.05
31 | GGCCGAGUUAAACACAGCGUGGCAAGGUGGCUGUGGCUCGACUGCC [A4C C8U C10A A26G A39C] | 0.01
32 | GGCCGAGUUCAAGACAGUGUGGCAAAGUGGCUGUGGCAAGACUGCC [A4C C8U C13G C18U U38A] | 0.09
33 | GGCCGAGUUCAACACAGGGUUGCAAAGUGGCUGUGGCUAGACUGAC [A4C C8U C18G G21U C45A] | 0.26
34 | GGCCGAGUUCAACACAACGUGGCAAAGUGGCUGUGUCUAGACUACC [A4C C8U G17A G36U G44A] | 0.03
35 | GGCCGAGUUCAACACAUCGUCGCAAAGUGGCUGUGGCAAGACUGCC [A4C C8U G17U G21C U38A] | 0.12
36 | GGCCGAGUACAACACAGUGUGGCAAAGUGGCUGUGGCUAGACUGCC [A4C C8U U9A C18U] | 0.34
37 | GGCCGAGCUAGACACAGCGUGGAAAAGUGGCUGUGGCUAGACUGCA [A4C C10A A11G C23A C46A] | 0.01
38 | GGCCGAGCUAAACACAGCGUGGCCAGGUGGCUGUGGCUAGACUGUC [A4C C10A A24C A26G C45U] | 0.01

Row | Variant | self-cleavage
39 | GGCCGAGCUAAAGACGUCGUGGCAAAGUGGCUGUGGCUAGACUGCC [A4C C10A C13G A16G G17U] | 0.02
40 | GGCCGAGCUAAACAUAGCGUGGCAAAGGGGCUGUGGCUGCACUGCC [A4C C10A C15U U28G A39G G40C] | 0
41 | GGCCGAGCUAAACACAGCGUGGCAAAGUGGCUGUGGAUAGACUGCC [A4C C10A C37A] | 0.02
42 | GGCCGAGCUAAACACAACGUGGCAAAGUGGCUGUGGCUAGACUGCC [A4C C10A G17A] | 0.04
43 | GGCCGAGCUAAACACAGCUUGGCCAUGUGGCUGUGGCUAGACUGCC [A4C C10A G19U A24C A26U] | 0
44 | GGCCGAGCUAAACACAGCGUCGCAAAGUGGCUGUGACUAGACUGCC [A4C C10A G21C G36A] | 0.03
45 | GGCCGAGCUAAACACAGCGUGGCAAAGUCGUUGUGGCUAGACAGCC [A4C C10A G29C C31U U43A] | 0
46 | GGCCGAGCUAAACACAGCGUGGCAAAGUCGCCGAGGCUAGACUGCU [A4C C10A G29C U32C U34A C46U] | 0.01
47 | GGCCGAGCUAAACACAGCGAGGCAAAGUGGCUGUGGCUAGACUGCC [A4C C10A U20A] | 0.01
48 | GGCCGAGCUAAACACAGCGUGGCAAAGUGGCAGUGGCUAGACUGCC [A4C C10A U32A] | 0.04
49 | GGCCGAGCUGGACACAGCGCGGCAAAGUGGCUGUGGCUAGACUGCA [A4C C10G A11G U20C C46A] | 0
50 | GGCCGAGCUGAAGACAGCGUGGCAAAGUGACUGUGGCUAGACUGCC [A4C C10G C13G G30A] | 0.01
51 | GGCCGAGCUGAAUACAGCGUGGCAAAUUGGCACUGGCUAGACUGCA [A4C C10G C13U G27U U32A G33C C46A] | 0.01
52 | GGCCGAGCUGAACAAAUCGUGGCAAAGAGGCUGUGUCUAGACUGCC [A4C C10G C15A G17U U28A G36U] | 0.02
53 | GGCCGAGCUGAACACAGAGUGGCAAAGUGGCUUUGGCUAGACUGCC [A4C C10G C18A G33U] | 0
54 | GGCCGAGCUGAACACAGCGUGGCAAAGUGGCUGUAGCUAGACUUCC [A4C C10G G35A G44U] | 0
55 | GGCCGAGCUGAACACAGCGCGGCAAAGUGGCUGUGGCUAGACUGCC [A4C C10G U20C] | 0.02
56 | GGCCGAGCUGAACACAGCGGGGCAAAGUGGCUGUCGCUAGACUGCC [A4C C10G U20G G35C] | 0.02
